Drawing on PubChem BioAssay AID485344 (National Center for Advancing Translational Sciences (NCATS), 2010), this text covers inhibition for 62 compounds.

Structures are written as SMILES. Where “and” joins values, the source holds several entries; their conditions need not be identical. Equal entries are not always repeated. About 6,900 (2%) of roughly 340,000 compounds were called active. Cut-off read from the data, not from the text of the source: active = inhibition above about 30%; inactive = below that, where a call was filed. This is a selection; strong and weak results do not stand in their true shares. Where no call is shown, the source filed none.

Chain of UniProt P14416 (P14416 whole entry, looked up): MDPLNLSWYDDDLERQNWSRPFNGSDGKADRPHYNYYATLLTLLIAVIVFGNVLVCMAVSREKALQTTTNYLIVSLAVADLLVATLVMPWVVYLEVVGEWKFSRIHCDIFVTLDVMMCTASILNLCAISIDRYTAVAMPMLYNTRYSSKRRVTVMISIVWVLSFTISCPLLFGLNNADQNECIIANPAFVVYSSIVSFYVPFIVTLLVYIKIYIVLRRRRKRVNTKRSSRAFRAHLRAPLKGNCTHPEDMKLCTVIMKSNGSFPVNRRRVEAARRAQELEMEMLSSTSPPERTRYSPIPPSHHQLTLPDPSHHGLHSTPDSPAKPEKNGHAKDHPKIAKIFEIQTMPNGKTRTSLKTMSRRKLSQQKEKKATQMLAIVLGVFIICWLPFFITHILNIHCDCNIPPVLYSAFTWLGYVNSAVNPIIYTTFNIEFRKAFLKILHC

In the assay the target is D(2) dopamine receptor (Homo sapiens) (UniProt P14416). Nature of the assay: HTS Assay for Allosteric Antagonists of the Human D2 Dopamine Receptor: Primary Screen for Antagonists. Note: 0% is about no effect. The note with it: HEK293 TREx D2 cells, calcium flux, dopamine EC80; at 10 µM; stronger effect = higher value. The essentials:
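In this primary screen, negative modulation is detected by tracking calcium flux after an EC80 dopamine challenge in inducible HEK293 T-REx D2 cells preexposed to test compound for 180 s.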
(In general: A change in cytosolic calcium serves as a functional read-out for many receptors and channels.)
The term inhibition denotes the drop in the measured response relative to a control, in per cent. Regarding `CCCCN(C)CCNC(=O)C1CCN(c2nc3ccc(CC)cc3s2)CC1`, the inhibition was -1.94%.
With `CCCOc1ccc(-c2cccc(NS(=O)(=O)c3cc(OC)ccc3OC)c2)nn1` the figure was 2.07%.
As to `COc1cccc(C(=O)NN2c3ccccc3CCc3ccccc32)c1`, the inhibition was active: 50.7%.
For `O=C(NCc1ccc(Cl)cc1)c1cnc2sc(N3CCCCCC3)nn2c1=O` the value was 4.6%; for `O=[N+]([O-])c1ccc(Sc2nnnn2-c2ccccc2)c(Cl)c1`, active: 35.5%.
As for `CC1CCc2c(sc(NC(=O)c3ccccc3)c2C(=O)Nc2ccccc2)C1` (configuration not stated), the inhibition is 0.952%.
For `CCOC(=O)CSc1nc2ccc(NC(=O)COc3ccccc3)cc2s1` the value was -1.75%.
For `COc1ccc(OC)c(CNc2ncnc3onc(-c4ccc(Cl)cc4)c23)c1` the value was -5.29%.
For `Cc1ccccc1-n1nc(CO)c(C(=O)NCCc2ccccc2)n1` the value was -12.6%; for `COc1cccc(NC(=O)C(=O)NCC(c2cccnc2)N2CCN(c3ccccc3)CC2)c1` (configuration not stated), -15.4%.
Take `CCOc1ccc(-c2cnc(NCc3cccc(Cl)c3)n2C)cc1`: the inhibition is -3.91%.
With `COc1ccc(CCNC(=O)Cn2c(=O)c3cccn3c3ccc(F)cc32)cc1OC` the figure was 18.7%; with `COc1ccc(C(=O)CCC(=O)Nc2cccc(C(C)=O)c2)cc1`, 15.9%; with `Cc1c(Cl)cccc1NC(=S)NC1CCN(Cc2ccccc2)CC1`, active: 85.3%.
As for `Cc1ccc(Nc2ccccc2)cc1`, the inhibition is active: 40.5%.
For `Cc1ccc(Cn2c(=O)n(Cc3ccc(Cl)cc3)c(=O)c3cccnc32)cc1` the value was 5.26%; for `CCOc1ccc(NC(=O)CSc2nnc(NC(=O)Nc3ccccc3)s2)cc1`, -12.7%.
With `Cc1nc2cc(-c3cccc(F)c3)nn2c(C)c1CCC(=O)NC1CCCCC1` the figure was -13.4%; with `COc1ccc(-c2nn(C)c3sc(C(=O)N4CCN(c5cc(Cl)ccc5C)CC4)cc23)cc1OC`, -6.51%; with `O=C(c1ccc2c(c1)N(Cc1cccc(Cl)c1)C(=O)c1ccccc1S2(=O)=O)N1CCN(c2cccc(C(F)(F)F)c2)CC1`, -2.04%.
With `CCOc1ccc(-c2nonc2NC(=O)COc2ccc(C)c(C)c2)cc1OCC` the figure was 6.82%; with `Cc1ccc(NC(=O)CN2C(=O)CCc3cc(S(=O)(=O)N4CCOCC4)ccc32)c(C)c1`, 18.7%; with `CCOc1ccc(CNC(=O)c2sc3nc(C)cc(C)c3c2-n2cccc2)cc1`, 10.8%.
For the compound `Cc1cc2oc(C(=O)Nc3nc(-c4ccccc4)ns3)c(C)c2cc1Cl`, the inhibition is -10.3%.
With `CN1CCN(C(CNC(=O)C(=O)Nc2ccc(F)cc2)c2cccnc2)CC1` (configuration not stated) the figure was -7%.
With `CC(=O)c1ccc(NS(=O)(=O)c2ccc3[nH]c4c(c3c2)CCCCCC4)cc1` the figure was 2.35%.
With `CCC(CC)C(=O)N1CCc2cc(OC)c(OC)cc2C1COc1ccccc1OC` (configuration not stated) the figure was 28.2%; with `Cc1ccc(C)c(Cn2nnc(C(=O)NCc3ccccc3)c2N)c1`, 16.1%.
As to `CN1CCN(CCCN2c3ccccc3Sc3ccc(Cl)cc32)CC1`, the inhibition was active: 78.7% and active: 78.4% and active: 71.9%.
With `CCC(=O)N1CCc2cc(S(=O)(=O)CCC(=O)N3CCN(c4ccccc4F)CC3)ccc21` the figure was 2.22%; with `Cc1ccc(CNC(=O)c2cc3sccc3n2Cc2ccc(F)cc2)cc1`, 6.99%; with `CCCCN1CCCc2cc(CN(CCCN3CCOCC3)C(=O)Nc3ccc(CC)cc3)ccc21`, 15.8%.
For `CCOC(=O)c1c(-c2ccc(OC)c(OC)c2)csc1NC(=O)c1ccc(C)cc1` the value was -3.42%; for `COc1ccc(-c2[nH]nc3oc(=O)cc(C)c23)cc1`, active: 33.4%; for `O=C(O)c1cccc(NC(=O)c2cc3cc(Br)cc(Br)c3oc2=O)c1`, -13.4%.
With `O=C(NCc1ccc(F)cc1)c1cc2cccc3c2n1CCS3` the figure was -3.68%; with `CC(=O)c1cccc(NC(=O)Cc2ccc(NC(=O)N3CCCCc4ccccc43)cc2)c1`, 2.17%.
On to `COc1ccc(S(=O)(=O)N(CC(=O)NCCSc2ccccc2)c2ccc(C)cc2)cc1`, for which the inhibition turned out to be 3.87%.
With `COc1ccccc1N1CCN(Cc2nc(N)nc(Nc3ccc(C)cc3)n2)CC1` the figure was active: 89.2%; with `CCOC(=O)c1cc(-c2ccccc2)n(CCC(=O)NCCc2cccc(C)c2)c1C`, -9.37%; with `COC(=O)c1ccc(NC(=O)C(=O)NCC(c2cccnc2)N2CCN(c3ccccc3)CC2)cc1` (configuration not stated), -4.04%.
For `CCCCNc1oc(-c2ccc(COc3ccccc3C)o2)nc1C#N` the value was 8.84%.
With `COCCNc1nc2c(c(=O)n(Cc3cccc(Cl)c3)c(=O)n2C)n1C` the figure was -5.38%; with `Cc1ccc(NC(=O)C2CCC(CNS(=O)(=O)c3ccc4c(c3)CCCC(=O)N4)CC2)cc1F` (configuration not stated), -1.89%.
Turning to `COc1ccc2c(c1)c1c(c(=O)n(Cc3ccccc3)c(=O)n1Cc1ccccc1Cl)n2C`, the inhibition was -2.81%.
For `CCc1ccc(NC(=O)C2=C(C)C(=O)OC23CCCCC3)cc1` the value was 12.3%; for `COc1ccc(OCC(=O)Nc2c(C(=O)N3CCN(c4ccccc4)CC3)oc3ccccc23)cc1`, 4.63%.
With `O=C(CSc1nnc(-c2cccc(F)c2)o1)N1CCCC1` the figure was active: 32.2%; with `COc1ccc(N2CCN(C(=O)COc3ccccc3C#N)CC2)cc1`, 10.5%.
Turning to `Cc1ccc(Cl)cc1N1CCN(S(=O)(=O)c2c(C(=O)N3CCOCC3)c(C)n(C)c2C)CC1`, the inhibition was active: 37.6%.
For `Cc1ccc(C)c(NC(=O)C(Cc2ccccc2)n2cccc2)c1` (configuration not stated) the value was 0.693%.
As for `COc1ccc(OC)c(NC(=O)Cn2c(=O)n(Cc3ccco3)c(=O)c3cc(OC)c(OC)cc32)c1`, the inhibition is -8.39%.
For `Brc1ccc(Nc2c3c(nc4nncn24)CCC3)cc1` the value was -6.14%; for `Cc1ccc(C(=O)Nc2ccc(-c3nc4ccccc4o3)cc2)cc1Cl`, 6.54%.
With `COc1ccccc1CNC(=O)CCCCn1c(=O)c2ccccc2n(CC(=O)Nc2c(C)cc(C)cc2C)c1=O` the figure was -2.73%; with `COc1ccccc1N1CCN(C2CCN(S(=O)(=O)c3ccc(NC(C)=O)cc3)CC2)CC1`, active: 31.7%.
As for `COc1ccccc1Cc1nc2ccccc2nc1SCC(=O)Nc1ccc2c(c1)OCO2`, the inhibition is -10.2%.
Take `CCOc1ccccc1CNC(=O)CCC(=O)N1CCSc2ccccc21`: the inhibition came out at 15.2%.
With `CCCN(CCC)C(=O)CSc1c2c(nc3ccc(Cl)cc13)CCCC2` the figure was 10.3%.
With `O=[N+]([O-])c1cc(-c2nc(-c3ccccc3)no2)ccc1NCc1cccnc1` the figure was -21.4%.
With `CCOc1ccc(-n2ccnc2SCC(=O)Nc2cccc3ccccc23)cc1`, the inhibition is -2.28%.
With `Cc1cccc(CC(=O)N2CC(=O)Nc3ccc(C)cc3C2c2ccc(F)cc2)c1` (configuration not stated) the figure was 11.6%.
